The values that follow come from article PMC4336329 (PLoS ONE, 2015).

Among all 310,000 compounds or so, about 14,000 (4.5%) showed an effect of 50% or more. Effects have a minus sign here. This is one part of the list.
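Note: peak tail current of the secondary pulse compared with the same well before compound.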

Sequence of human ether-à-go-go-related gene (hERG) potassium channel (Q12809 whole entry, looked up): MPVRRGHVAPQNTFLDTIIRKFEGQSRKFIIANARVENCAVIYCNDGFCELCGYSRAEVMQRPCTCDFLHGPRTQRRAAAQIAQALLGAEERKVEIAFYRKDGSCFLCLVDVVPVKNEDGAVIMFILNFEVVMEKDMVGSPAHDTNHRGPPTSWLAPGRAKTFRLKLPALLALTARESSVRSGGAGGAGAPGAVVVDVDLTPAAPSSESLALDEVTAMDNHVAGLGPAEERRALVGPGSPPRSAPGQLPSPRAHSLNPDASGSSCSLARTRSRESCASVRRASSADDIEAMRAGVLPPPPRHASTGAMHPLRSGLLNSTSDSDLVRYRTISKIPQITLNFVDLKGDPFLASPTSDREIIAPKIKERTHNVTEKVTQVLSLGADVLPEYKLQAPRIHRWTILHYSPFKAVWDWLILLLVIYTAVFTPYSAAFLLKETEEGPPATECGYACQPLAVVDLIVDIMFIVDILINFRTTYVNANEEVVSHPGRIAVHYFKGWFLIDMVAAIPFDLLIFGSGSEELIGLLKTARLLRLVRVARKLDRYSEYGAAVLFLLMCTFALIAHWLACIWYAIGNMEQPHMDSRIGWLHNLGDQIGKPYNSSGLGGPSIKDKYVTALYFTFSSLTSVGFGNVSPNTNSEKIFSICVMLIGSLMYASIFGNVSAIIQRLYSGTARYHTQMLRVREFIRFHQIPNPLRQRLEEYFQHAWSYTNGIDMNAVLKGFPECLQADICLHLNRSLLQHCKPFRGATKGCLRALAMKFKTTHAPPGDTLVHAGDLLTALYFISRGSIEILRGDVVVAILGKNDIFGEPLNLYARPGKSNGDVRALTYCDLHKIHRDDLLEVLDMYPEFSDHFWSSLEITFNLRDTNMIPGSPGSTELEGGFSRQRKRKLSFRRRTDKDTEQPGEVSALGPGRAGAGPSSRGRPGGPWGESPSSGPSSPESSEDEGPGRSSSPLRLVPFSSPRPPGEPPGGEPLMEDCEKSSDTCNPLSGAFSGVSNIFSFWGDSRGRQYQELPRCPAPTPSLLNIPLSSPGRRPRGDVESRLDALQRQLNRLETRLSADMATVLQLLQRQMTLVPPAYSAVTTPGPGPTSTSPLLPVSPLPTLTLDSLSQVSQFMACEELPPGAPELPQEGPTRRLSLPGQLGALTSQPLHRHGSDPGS

This assay has as its target human ether-à-go-go-related gene (hERG) potassium channel (human, UniProt Q12809). Briefly: primary screen, population patch clamp on CHO cells stably expressing hERG.
On to `Cc1c(CC=C(Cl)Cl)c(=O)[nH]c2c(C)cccc12`, for which the “hERG current change (%, negative = inhibition) at 10uM” value was 22.2%.
Turning to `Cc1cccc(NC(=O)NC2(C)CCS(=O)(=O)C2)c1` (stereo not shown), the “hERG current change (%, negative = inhibition) at 10uM” value worked out at 6.52%.
For `CCOc1ccccc1-n1cnc2cc(C(=O)NCc3ccco3)ccc21`, the “hERG current change (%, negative = inhibition) at 10uM” value is recorded as -31.3%.
Then `COc1ccc(C(=O)COC(=O)CNC(=O)c2cccs2)cc1Br`, with -19%; and `N#CCOC(=O)C1c2ccccc2Oc2ccccc21`, with -1.32%.
Regarding `COc1ccc(OC)c(-c2csc(N(Cc3ccco3)C(=O)c3cccs3)n2)c1`, the “hERG current change (%, negative = inhibition) at 10uM” value is recorded as 0.858%.
Then `COC(=O)C1=C(C)Nc2c(c(=O)n(C)c(=O)n2C)C1c1cccc(O)c1` (stereo not shown), with 11.5%; and `COCCNc1nc(N)c([N+](=O)[O-])c(NCc2ccccc2)n1`, with 5.84%.
The value for `CCOC(=O)N1CCN(Cc2nc(N)nc(Nc3ccc(OCC)cc3)n2)CC1` was -67.6%; that for `Cc1ccc(NC(=O)CN2C(=O)/C(=C\c3cccs3)SC2=S)cc1` was -1.74%.
Then `O=C(c1csc(Nc2cccc3ccccc23)n1)N1CCCC1`, with -23.8%; and `CC(=O)c1ccc(NS(=O)(=O)c2ccccc2)cc1`, with -5.26%.
With `S=c1[nH]cnc2sc(-c3ccccc3)cc12`, the “hERG current change (%, negative = inhibition) at 10uM” value is given as 8.96%.
The value for `COc1ccc(S(=O)(=O)N2CCN(C(=S)Nc3ccc(S(N)(=O)=O)cc3)CC2)cc1` was 15.7%; that for `O=C(Nc1nncs1)c1cc(-c2ccncc2)nc2ccc(Cl)cc12` was 4.4%.
The value for `Cc1cc(N)n2ncc(-c3ccc(F)cc3)c2n1` was -1.46%.
The value for `CC1CCCN(c2nc3ccsc3c(=O)s2)C1` (stereo not shown) was -16%; that for `C/C(=N\NC(=O)c1ccc(O)cc1)c1ccc(NC(=O)Cc2ccccc2)cc1` was 15.3%.
For the compound `COc1ccc2nc(NC(=O)C3CCN(S(=O)(=O)c4cnc[nH]4)CC3)sc2c1`, the “hERG current change (%, negative = inhibition) at 10uM” value is 17.5%.
The value for `O=C(O)Cn1nc(C(F)(F)F)c2c1CCCC2` was 8.89%; that for `COC(=O)C1=C(CS(=O)(=O)c2ccc(OC)cc2)NC(=O)NC1c1ccccc1` (stereo not shown) was 11.6%.
On to `COc1ccc(C2CC(c3ccc(OC)cc3)n3nc(NC(=O)c4ccco4)nc3N2)cc1` (stereo not shown), for which the “hERG current change (%, negative = inhibition) at 10uM” value is -19.2%.
The value for `CCOC(=O)N1CCN(S(=O)(=O)CCNC(=O)c2ccc(F)cc2)CC1` was -20.1%; that for `COc1ccc(-n2nc3c(c2NC(=O)CCCl)CSC3)cc1` was 0.615%; that for `O=C(CN1CCN(S(=O)(=O)c2ccccc2[N+](=O)[O-])CC1)Nc1ccc(N2CCOCC2)cc1` was -12.9%.
Take `CCN1C(=O)/C(=C2/C=CC=CN2C)SC1=S`: the “hERG current change (%, negative = inhibition) at 10uM” value was -35.2%.
Consider `COc1cccc(CN2CCCC(C(=O)c3ccc4c(c3)OCO4)C2)c1O` (stereo not shown), for which the “hERG current change (%, negative = inhibition) at 10uM” value is on record as -65.5%.
Consider `COc1cc(C(=O)COC(=O)CNC(=O)C2CCCCC2)cc(OC)c1OC`, for which the “hERG current change (%, negative = inhibition) at 10uM” value is recorded as -0.253%.
The value for `Cc1cc(OCc2cc(C(=O)NC3CCC3)no2)cc(C)c1Cl` was 3.82%; that for `COc1ccc(/C=C2/SC(=O)N(CC(O)Cn3c4ccccc4c4ccccc43)C2=O)cc1` (stereo not shown) was 4.63%; that for `Cc1nn(-c2ccccc2)c(/N=C/c2ccccc2O)c1-c1ccccc1` was -8.85%.
With `O=C(Nc1ccn(-c2ccccc2)n1)c1ccccc1Br`, the “hERG current change (%, negative = inhibition) at 10uM” value is -66%.
Then `Cc1cc(NC(=O)c2ccc(Cl)c(S(=O)(=O)N3CCOCC3)c2)no1`, with 3.9%; and `COc1ccc(CC(=O)N2CCN(S(=O)(=O)c3ccc(Cl)s3)CC2)cc1`, with -39.7%; and `CNC(=O)COC(=O)c1ccc2c(c1)NC(=O)C1CCCN21` (stereo not shown), with 11.7%.
The value for `O=C(NCCCn1ccnc1)c1cc(-c2ccc3c(c2)OCO3)on1` was -5.96%; that for `CC1CCC/C(=C\Nc2ccc3c(c2)OCO3)C1=O` (stereo not shown) was -13.5%; that for `CN(C(=O)CSc1nnc(-c2c[nH]c3ccccc23)n1C1CC1)C1CCS(=O)(=O)C1` (stereo not shown) was -12.1%.
Turning to `O=C(NC1=NCCS1)c1nc(-c2ccccc2)n(-c2ccccc2)n1`, the “hERG current change (%, negative = inhibition) at 10uM” value is given as 4.57%.
Then `CC(=O)c1ccc(S(=O)(=O)N2CCN(CC(=O)Nc3ccccc3C(=O)NC3CC3)CC2)cc1`, with -75.4%.
Turning to `COc1ccc(C(=O)NCCn2nc(C)cc2C)cc1OC1CCN(C(C)=O)CC1`, the “hERG current change (%, negative = inhibition) at 10uM” value turned out to be 25.7%.
Turning to `CCCN(CCC)CC(=O)N1CC(=O)Nc2ccccc21`, the “hERG current change (%, negative = inhibition) at 10uM” value came out at 8.18%.
Then `Nc1nnc(SCCCOc2ccc(F)cc2)s1`, with 10.9%; and `Nn1c(SCC(=O)N2CCN(S(=O)(=O)c3ccc(Cl)cc3)CC2)nnc1-c1cccs1`, with -52.1%.
Then `Cn1cccc1C(=O)NCC(c1ccco1)N1CCCCC1` (stereo not shown), with -16.2%; and `COc1ccc(S(=O)(=O)N(CC(=O)O)c2ccc(C)cc2)cc1`, with 4%.
